Test results reported in PMC7016594.
These are yes or no findings as the source states them, for the method shown. Binding seen in cells or lysates may run through a third protein. Some results given as binding are weak or reduced against the parent protein; the word gives no strength.

Chains of the proteins cited; added tags and fusions are not shown.
UniProt P35462: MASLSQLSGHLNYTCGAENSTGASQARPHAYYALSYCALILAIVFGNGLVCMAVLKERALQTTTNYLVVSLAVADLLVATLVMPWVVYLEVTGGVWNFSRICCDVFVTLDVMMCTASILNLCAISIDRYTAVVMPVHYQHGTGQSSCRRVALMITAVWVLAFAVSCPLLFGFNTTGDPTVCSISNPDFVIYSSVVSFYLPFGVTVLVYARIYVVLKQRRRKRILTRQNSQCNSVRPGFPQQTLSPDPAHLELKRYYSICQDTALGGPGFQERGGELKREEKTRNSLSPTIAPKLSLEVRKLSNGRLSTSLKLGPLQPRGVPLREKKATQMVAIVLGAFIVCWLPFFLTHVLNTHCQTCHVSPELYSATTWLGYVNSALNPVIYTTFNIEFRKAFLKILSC
UniProt Q92847: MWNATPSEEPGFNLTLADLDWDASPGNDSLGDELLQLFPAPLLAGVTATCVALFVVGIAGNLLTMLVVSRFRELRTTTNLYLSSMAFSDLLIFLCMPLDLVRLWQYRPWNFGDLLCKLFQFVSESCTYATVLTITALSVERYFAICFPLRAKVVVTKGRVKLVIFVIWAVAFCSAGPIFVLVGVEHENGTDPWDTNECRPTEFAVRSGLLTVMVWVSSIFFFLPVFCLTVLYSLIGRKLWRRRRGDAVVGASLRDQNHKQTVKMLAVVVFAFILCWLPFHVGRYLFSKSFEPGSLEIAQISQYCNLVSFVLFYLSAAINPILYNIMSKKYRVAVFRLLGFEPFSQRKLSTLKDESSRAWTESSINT
UniProt P48039: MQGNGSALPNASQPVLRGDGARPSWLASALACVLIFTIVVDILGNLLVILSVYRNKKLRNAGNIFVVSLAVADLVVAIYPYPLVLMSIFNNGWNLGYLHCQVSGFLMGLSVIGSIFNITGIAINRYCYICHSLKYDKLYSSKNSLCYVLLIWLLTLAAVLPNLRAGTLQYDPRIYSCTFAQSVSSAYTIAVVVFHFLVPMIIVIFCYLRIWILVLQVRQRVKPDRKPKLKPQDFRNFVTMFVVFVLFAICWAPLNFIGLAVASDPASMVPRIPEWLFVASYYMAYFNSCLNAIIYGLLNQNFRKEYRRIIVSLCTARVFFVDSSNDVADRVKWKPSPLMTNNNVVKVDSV

Key:
[1] = target: dopamine D3 receptor fused to Renilla luciferase (human) (UniProt P35462); test: FRET or BRET; BRET saturation in HEK-293T cells co-transfected with a constant amount of D3R-Rluc cDNA (0.7 ug) and increasing amounts of receptor-YFP cDNA; 48 h after transfection; HBSS pH 7.4 with 0.1% glucose; 5 uM coelenterazine H
[2] = target: dopamine D3 receptor (endogenous) (human (endogenous in 59HCE cells and human ciliary body)) (UniProt P35462); test: proximity ligation; in situ on 10 um sections of human ciliary body from normotensive (n = 2) and glaucoma (n = 2) donors; anti-D3R-PLUS and anti-MT1R- or anti-MT2R-MINUS probes (Duolink); signal lower in glaucoma samples
[3] = target: dopamine D3 receptor (endogenous) (human (endogenous in 59HCE cells and human ciliary body)) (UniProt P35462); test: proximity ligation; fixed, permeabilised 59HCE cells; anti-D3R antibody with PLUS oligonucleotide, anti-MT1R or anti-MT2R antibody with MINUS oligonucleotide (Duolink); cells also treated 18 h with the TRPV4 agonist GSK1016790A (1-10,000 nM), which lowered the signal

Row | binding [1] | binding [2] | binding [3] | Molecule
1 | no binding | – | – | ghrelin receptor GHS-R1a fused to yellow fluorescent protein (from UniProt Q92847 1-366)
2 | – | binds | binds | melatonin MT1 receptor (endogenous) (from UniProt P48039 1-350)
3 | – | binds | binds | melatonin MT2 receptor (endogenous) (receptor, UniProt P49286 1-362) MSENGSFANCCEAGGWAVRPGWSGAGSARPSRTPRPPWVAPALSAVLIVTTAVDVVGNLLVILSVLRNRKLRNAGNLFLVSLALADLVVAFYPYPLILVAIFYDGWALGEEHCKASAFVMGLSVIGSVFNITAIAINRYCYICHSMAYHRIYRRWHTPLHICLIWLLTVVALLPNFFVGSLEYDPRIYSCTFIQTASTQYTAAVVVIHFLLPIAVVSFCYLRIWVLVLQARRKAKPESRLCLKPSDLRSFLTMFVVFVIFAICWAPLNCIGLAVAINPQEMAPQIPEGLFVTSYLLAYFNSCLNAIVYGLLNQNFRREYKRILLALWNPRHCIQDASKGSHAEGLQSPAPPIIGVQHQADAL
